{
  "source": "PubChem BioAssay AID624296",
  "about": "(National Center for Advancing Translational Sciences (NCATS), 2012)",
  "note": "The whole screen tested about 350,000 compounds, of which about 9,900 (2.8%) were called active. Inconclusive means that the source gave no clear call. Such entries were picked first, then a sample of the others. Calls come from the whole dose curve; as a rule, active = well fitted activation curve with a large enough effect; inconclusive = small, poorly fitted or top-dose-only effect; inactive = no such curve, though single readings can be large or run the other way. Potencies of inconclusive entries are left out as doubtful fits. Potency is the fitted concentration of half-maximal effect; tags give direction and shape of the fitted curve.",
  "data": [
    {"assay": "A quantitative high throughput screen for small molecules that induce DNA re-replication in MCF 10a normal breast cells; note: nearly all actives have a fitted effect of over 50% in size.", "settings": "MCF 10A DNA re-replication, Hoechst nuclear intensity, 48 h; series mostly up to 46.1 µM", "values": [
      {"smiles": "O=C(COc1ccc(Cl)cc1)NCCSCc1cccc(Cl)c1", "Potency": "inconclusive [activator, single point]"},
      {"smiles": "COc1ccc(C2/C=C\\CN(Cc3ccco3)CC(=O)N2Cc2ccc(F)cc2)cc1", "note": "(configuration not stated)", "Potency": "inconclusive [activator, full curve, poor fit]"},
      {"smiles": "CCC(C)Nc1nc2c(c(=O)[nH]c(=O)n2C)n1CCOc1ccccc1", "note": "(configuration not stated)", "Potency": "inactive"},
      {"smiles": "COc1ccc(-c2cc(C3CC3)nc(SCC(=O)c3cccs3)c2C#N)cc1", "Potency": "inconclusive [activator, full curve]"},
      {"smiles": "Cc1cn([C@@H](CCCCNC(=O)OC(C)(C)C)C(=O)NCCCCCCCCCCC(=O)N2CCN(C(=O)OC(C)(C)C)CC2)nn1", "Potency": "inconclusive [activator, partial curve, poor fit]"},
      {"smiles": "COc1cc(/C=N/N=C(/N)c2nonc2N)cc(Br)c1OCc1ccccc1C", "Potency": "active: 13 µM"},
      {"smiles": "Cc1cc(C)c(NC(=O)c2sc3nc4c(cc3c2N)C(=O)CC(C)(C)C4)c(C)c1", "Potency": "inconclusive [activator, partial curve, poor fit]"},
      {"smiles": "Cc1cc(C)c2c(c1)/C(=C/C(=O)c1ccc(Br)s1)C(=O)N2", "Potency": "inconclusive [activator, partial curve, poor fit]"},
      {"smiles": "Cc1cc(NC(=O)CSCC(=O)Nc2nc3c(C)cccc3s2)no1", "Potency": "inconclusive [activator, single point]"},
      {"smiles": "O=C(Nc1ccc(Nc2ccccc2)cc1)c1ccc(Br)cc1", "Potency": "inconclusive [activator, single point]"},
      {"smiles": "COc1ccccc1CNCC(O)(c1ccc(F)cc1)c1ccc(F)cc1", "Potency": "inactive"},
      {"smiles": "CCCC1=NN2C(=N)/C(=C\\c3ccc(SCc4ccco4)o3)C(=O)N=C2S1", "Potency": "inconclusive [activator, single point]"},
      {"smiles": "O=C(CCC(=O)CCN1CCCCC1)CCN1CCCCC1", "Potency": "inconclusive [activator, single point]"},
      {"smiles": "COc1cc(/C=C/C(=O)O)ccc1O", "Potency": "inconclusive [activator, full curve, poor fit]"},
      {"smiles": "CN1C(c2ccc(F)cc2)=CS/C1=C(\\C#N)c1nnc2n1-c1ccccc1SC2", "Potency": "active: 11.6 µM"},
      {"smiles": "CCCn1c(N)c(C(=O)COC(=O)CCS(=O)(=O)c2ccc(C)cc2)c(=O)[nH]c1=O", "Potency": "inactive"},
      {"smiles": "CC1(C)Cc2c(cnn2-c2cccc(F)c2)C(NC(=O)c2ccc(=O)[nH]n2)C1", "note": "(configuration not stated)", "Potency": "inconclusive [activator, single point]"},
      {"smiles": "O=C(Nc1ccc(Cl)cc1)c1ccc(-n2cccn2)c([N+](=O)[O-])c1", "Potency": "inconclusive [activator, single point]"},
      {"smiles": "O=C(NCc1ccc(F)cc1)c1cc(S(=O)(=O)N2CCCCC2)ccc1Cl", "Potency": "inconclusive [activator, full curve, poor fit]"},
      {"smiles": "COc1ccccc1N1CCN(C(=O)CSc2ncnc3scc(-c4ccccc4)c23)CC1", "Potency": "inactive"},
      {"smiles": "CCCS(=O)(=O)c1c(S(=O)(=O)CCC)c2c(C)cccn2c1C(N)=O", "Potency": "inactive"},
      {"smiles": "COC(=O)C(NC(=O)c1ccccc1C)(Nc1ncc(S(=O)(=O)c2ccc([N+](=O)[O-])cc2)s1)C(F)(F)F", "note": "(configuration not stated)", "Potency": "inconclusive [activator, partial curve]"},
      {"smiles": "CN(C(=O)Cn1cccc1C1=NC(c2ccccc2)CO1)c1ccccc1", "note": "(configuration not stated)", "Potency": "inconclusive [activator, partial curve, poor fit]"},
      {"smiles": "O=C(Nc1ccc(NC(=O)C2CC2)nc1)c1cccnc1", "Potency": "inconclusive [activator, partial curve, poor fit]"},
      {"smiles": "Cc1cccnc1NC(=O)c1cccc(S(=O)(=O)N2CCN(c3ccc(F)cc3)CC2)c1", "Potency": "inconclusive [activator, partial curve, poor fit]"},
      {"smiles": "Cc1ccc(F)c(Cn2cnc3c(cnn3C(C)(C)C)c2=O)c1Cl", "Potency": "inconclusive [activator, single point]"},
      {"smiles": "COc1cc2c(cc1OC)n(CC(=O)NC1CCCCCC1)n1c(C)cc(=O)nc21", "Potency": "inactive"},
      {"smiles": "CC(C)CC(C(=O)NC1CCCCC1)N(Cc1cccs1)C(=O)c1snc(C(N)=O)c1N", "note": "(configuration not stated)", "Potency": "inconclusive [activator, partial curve]"},
      {"smiles": "COc1ccc(/C=N/NC(=O)c2cccnc2)cc1CN1CCOCC1", "Potency": "inactive"},
      {"smiles": "O=C(CN1C(=O)/C(=C/c2cccc(Br)c2)SC1=S)N1CCCC1", "Potency": "inactive"},
      {"smiles": "Cc1cc(C)c(OCC(=O)OC(C)C(=O)NCc2ccccc2)c(C)c1", "note": "(configuration not stated)", "Potency": "inactive"},
      {"smiles": "Cc1ccsc1C(=O)NCC(C)(C)N1CCOCC1", "Potency": "inconclusive [activator, full curve]"},
      {"smiles": "CCOC(=O)N1CCN(C(=O)c2ccc3nc4ccc(Cl)cc4c(=O)n3c2)CC1", "Potency": "inconclusive [activator, partial curve, poor fit]"},
      {"smiles": "CCOC(=O)C1C(=O)NC(SCC(=O)Nc2nccs2)=C(C#N)C1c1ccccc1OCC", "note": "(configuration not stated)", "Potency": "inconclusive [activator, single point]"},
      {"smiles": "CCCCN(Cc1ccccc1)S(=O)(=O)c1cc2c(cc1Br)CC(C)N2C(C)=O", "note": "(configuration not stated)", "Potency": "inconclusive [activator, single point]"},
      {"smiles": "CCOC(=O)c1ccc(-c2ccc(/C=N/NC(=O)CN(c3ccccc3Br)S(C)(=O)=O)o2)cc1", "Potency": "inconclusive [activator, partial curve, poor fit]"},
      {"smiles": "Cc1ccc(NC(=O)Cn2cccc2C2=NC(c3ccccc3)CO2)cc1C", "note": "(configuration not stated)", "Potency": "inconclusive [activator, partial curve, poor fit]"},
      {"smiles": "CCCCN(C(=O)CCCSc1nc2ccccc2[nH]1)c1c(N)n(Cc2ccccc2)c(=O)[nH]c1=O", "Potency": "inactive"},
      {"smiles": "CNC(=O)/C(C#N)=C/c1cn(CC(=O)OC)c2ccccc12", "Potency": "inconclusive [activator, single point]"},
      {"smiles": "O=C(Nc1cccc(F)c1)C1CCCN(S(=O)(=O)c2ccccc2)C1", "note": "(configuration not stated)", "Potency": "inconclusive [activator, partial curve, poor fit]"},
      {"smiles": "COc1cc(C(=O)OCC(C)=O)ccc1OCc1c(C)noc1C", "Potency": "active: 20.6 µM"},
      {"smiles": "COc1ccc(NC(=O)COc2ccc(C)nc2[N+](=O)[O-])cc1S(N)(=O)=O", "Potency": "inconclusive [activator, partial curve, poor fit]"},
      {"smiles": "CCCc1cc(=O)n2[nH]c(SCc3ccc(Cl)cc3)nc2n1", "Potency": "inactive"},
      {"smiles": "CCOc1ccc(-c2cc(C(=O)Nc3ccc4c(c3)OCCO4)c3ccccc3n2)cc1", "Potency": "inactive"},
      {"smiles": "Cc1cccc(NC(=O)CSCC(=O)Nc2cccc3ncccc23)c1", "Potency": "inactive"},
      {"smiles": "Cc1ccc(NC(=O)CSc2nnc(-c3n[nH]c4ccccc34)n2-c2ccccc2)c(C)c1", "Potency": "inconclusive [activator, single point]"},
      {"smiles": "CCN(CC(=O)N1CCCC1)S(=O)(=O)c1ccc(Br)cc1", "Potency": "inactive"},
      {"smiles": "COc1ccc(-c2[nH]ncc2-c2ccc(Cl)cc2)c(O)c1", "Potency": "inconclusive [activator, single point]"},
      {"smiles": "Cc1ccc2c(c1)OC(c1ccc3c(c1)OCCO3)CC2=O", "note": "(configuration not stated)", "Potency": "inconclusive [activator, single point]"},
      {"smiles": "Cn1c(CNc2ccc(Cl)cc2)nnc1SCc1ccccc1", "Potency": "inactive"},
      {"smiles": "Cc1ccc(NC(=O)c2scc3c2CCCC3)cc1", "Potency": "inconclusive [activator, single point]"},
      {"smiles": "Cc1nnc2ccc(-c3ccc(NS(=O)(=O)c4ccc(F)cc4F)cc3)nn12", "Potency": "inconclusive [activator, single point]"},
      {"smiles": "COc1ccc(NC(=O)CSc2nnc(C3CC3)n2C)cc1S(=O)(=O)N1CCCCC1", "Potency": "inactive"},
      {"smiles": "COc1cc(/C=N/n2c(C3CCCCC3)n[nH]c2=S)ccc1O", "Potency": "inactive"},
      {"smiles": "COc1ccc(C(F)(F)F)cc1N/C=C\\c1nnnn1-c1ccccc1", "Potency": "inconclusive [activator, single point]"},
      {"smiles": "CCOC(=O)c1c(NC(=O)Cn2cc([N+](=O)[O-])cn2)sc2c1CCC2", "Potency": "inconclusive [activator, full curve]"},
      {"smiles": "COc1ccccc1NS(=O)(=O)c1ccc(C(=O)N2CCN(c3ccccc3O)CC2)cc1", "Potency": "inconclusive [activator, single point]"},
      {"smiles": "CC[C@]12c3[nH]c4ccc(OC)cc4c3CCN1C(=O)C(CC(=O)NCCCN(C)C)C[C@@H]2C(=O)N1CCN(C(=O)c2ccco2)CC1", "note": "(some centres not stated)", "Potency": "inconclusive [activator, single point]"},
      {"smiles": "CC1=CC(=O)C(C(C)=Nc2ccccc2Cl)C(=O)O1", "note": "(configuration not stated)", "Potency": "inactive"},
      {"smiles": "COc1ccc(CCC(C)NCc2ccccc2OC)cc1", "note": "(configuration not stated)", "Potency": "inactive"},
      {"smiles": "Cc1nc(SCc2ccc(C(=O)O)cc2)nc2c1CCCC2", "Potency": "inconclusive [activator, single point]"},
      {"smiles": "O=C(NCCS(=O)(=O)c1ccc(Br)cc1)c1ccc(Cl)cc1Cl", "Potency": "inactive"},
      {"smiles": "CC(CC(=O)N1CCN(c2ccccc2)CC1)S(=O)(=O)c1ccc2c(c1)NC(=O)CS2", "note": "(configuration not stated)", "Potency": "inconclusive [activator, single point]"},
      {"smiles": "COc1ccc(NC(=O)c2cc([N+](=O)[O-])ccc2O)cc1", "Potency": "inconclusive [activator, single point]"},
      {"smiles": "COc1ccc(/C=C2\\SC(=O)N(CCNC(=O)Cc3coc4cc(C)ccc34)C2=O)cc1OC", "Potency": "inconclusive [activator, single point]"},
      {"smiles": "Fc1cc(F)c2nc(Nc3nc4c(F)cccc4s3)sc2c1", "Potency": "inconclusive [activator, partial curve]"},
      {"smiles": "COc1cnc(-c2ccccn2)nc1Oc1ccc(Cl)c2ccccc12", "Potency": "inconclusive [activator, partial curve, poor fit]"}
    ]}
  ]
}
